# Structures can show the parent of a compound that is named as a salt. The list shows a part of the results. Single values of this set are uncertain. Values with irradiation are relative to irradiated vehicle.
# How the values were obtained:
# [1] = test system: A549-Dual; assay: NF-kB reporter (SEAP) activity, viability-corrected, relative to vehicle (fold change vs vehicle); higher = more activation of STING-IRF / NF-kB immune response reporter; settings: 10 µM
# [2] = test system: A549-Dual; assay: ISRE reporter (Lucia luciferase) activity, viability-corrected, relative to vehicle (fold change vs vehicle); higher = more activation of STING-IRF / NF-kB immune response reporter; settings: 10 µM
# 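For NF-kB reporter (SEAP) activity, viability-corrected, relative to vehicle in this document: viability correction based on the alamar blue assay, with concentrations leaving 10% survival or less dropped.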
Compound,NF-kB reporter ([1]; irradiation: 8 Gy/4 fr),NF-kB reporter ([1]; irradiation: none),ISRE reporter ([2]; irradiation: 8 Gy/4 fr),ISRE reporter ([2]; irradiation: none)
C1=Cc2ccccc2Nc2ccccc21 [Iminostilbene],0.557,0.603,0.651,0.612
CN1CCCC(n2nc(Cc3ccc(Cl)cc3)c3ccccc3c2=O)CC1.Cl (stereo not drawn) [Azelastine HCl],1.07,1.14,0.749,1.56
COc1ncnc(NS(=O)(=O)c2ccc(N)cc2)c1OC [Sulfadoxine],0.996,0.956,0.92,0.799
COC(=O)C1=C(C)NC(C)=C(C(=O)OC)C1c1ccccc1[N+](=O)[O-] [Nifedipine],1.03,1.11,0.938,0.683
CC/C=C\C/C=C\C/C=C\CCCCCCCC(=O)OC [Methyl linolenate],1,0.751,0.905,0.62
C=CC1(C)CC(OC(=O)CSC(C)(C)CNC(=O)C(N)C(C)C)C2(C)C(C)CCC3(CCC(=O)C32)C(C)C1O.Cl (stereo not drawn) [Valnemulin HCl],0.626,1.47,0.628,2
COc1cc2nc(N(C)CCCNC(=O)C3CCCO3)nc(N)c2cc1OC (stereo not drawn) [Alfuzosin],0.873,1.01,1.23,1.09
COc1ccccc1O [Guaiacol],1.02,1.01,0.941,1.29
CC(=O)OCC1=C(C(=O)[O-])N2C(=O)C(NC(=O)CSc3ccncc3)C2SC1.[Na+] (stereo not drawn) [Cephapirin Sodium],0.758,0.751,0.695,0.455
O=C([O-])CCSCC1OC2OC3C(CSCCC(=O)[O-])OC(OC4C(CSCCC(=O)[O-])OC(OC5C(CSCCC(=O)[O-])OC(OC6C(CSCCC(=O)[O-])OC(OC7C(CSCCC(=O)[O-])OC(OC8C(CSCCC(=O)[O-])OC(OC9C(CSCCC(=O)[O-])OC(OC1C(O)C2O)C(O)C9O)C(O)C8O)C(O)C7O)C(O)C6O)C(O)C5O)C(O)C4O)C(O)C3O.[Na+].[Na+].[Na+].[Na+].[Na+].[Na+].[Na+].[Na+] (stereo not drawn) [Sugammadex (sodium)],0.378,0.871,0.322,0.529
CCc1ccc(C(=O)C(C)CN2CCCCC2)cc1.Cl (stereo not drawn) [Eperisone hydrochloride],1.58,0.824,0.329,0.783
C1COC(NC(C2CC2)C2CC2)=N1.O=P(O)(O)O [Rilmenidine Phosphate],1.21,0.729,0.964,0.581
Cc1onc(-c2ccccc2)c1-c1ccc(S(N)(=O)=O)cc1 [Valdecoxib],0.835,0.961,0.777,0.739
CC(=O)OCC(=O)C12N=C(C)OC1CC1C3CCC4=CC(=O)C=CC4(C)C3C(O)CC12C (stereo not drawn) [Deflazacort],0.372,0.615,0.0729,0.251
CC1(C)C(C(=O)O)N2C(=O)CC2S1(=O)=O (stereo not drawn) [Sulbactam],0.977,1.11,0.946,0.755
CCc1ccc(Cc2ccc3c(c2)C2(OC3)OC(CO)C(O)C(O)C2O)cc1.O (stereo not drawn) [Tofogliflozin(CSG 452)],0.702,0.82,0.629,0.746
CC(=O)NCC(=O)O.CC(=O)NCC(=O)O.N=C(N)c1ccc(N=NNc2ccc(C(=N)N)cc2)cc1 [Diminazene Aceturate],0.543,0.727,0.661,1.37
Cc1cc2c(cc1S(N)(=O)=O)S(=O)(=O)CCC2 [Meticrane],0.971,0.86,0.85,0.694
CCNC(=O)CC[C@H](N)C(=O)O [L-Theanine],0.92,0.669,0.752,0.499
NCC1OC(OC2C(N)CC(N)C(OC3OC(CO)C(O)C(N)C3O)C2O)C(N)CC1O (stereo not drawn) [Tobramycin],0.82,0.851,0.873,0.929
CN1CCc2c(c3ccccc3n2Cc2ccccc2)C1.CN1CCc2c(c3ccccc3n2Cc2ccccc2)C1.O=S(=O)(O)c1cccc2c(S(=O)(=O)O)cccc12 [Mebhydrolin napadisylate],0.705,1.61,0.699,0.937
COc1ccc(CN(CCN(C)C)c2ncccn2)cc1 [Thonzylamine],0.903,0.967,0.821,0.635
CCC(C)C(=O)OC1CC(C)C=C2C=CC(C)C(CCC3CC(O)CC(=O)O3)C21 (stereo not drawn) [Lovastatin],1.11,1.95,0.383,1.15
CC(C)=CCCC(C)(OC1OC(CO)C(O)C(O)C1O)C1CCC2(C)C1C(O)CC1C3(C)CCC(O)C(C)(C)C3C(OC3OC(CO)C(O)C(O)C3OC3OCC(O)C(O)C3O)CC12C (stereo not drawn) [Notoginsenoside R1],0.784,0.695,0.723,0.634
CCCOc1ccc(S(=O)(=O)NCCC2CCCN2C)cc1-c1nc(=O)c2c([nH]1)c(CCC)nn2C (stereo not drawn) [Udenafil],0.701,0.751,0.926,1.13
CCOC(=O)Nc1ccc(NCc2ccc(F)cc2)nc1N.O=C(O)/C=C/C(=O)O [Flupirtine maleate],0.729,0.906,0.653,0.726

Compound,NF-kB reporter ([1]; irradiation: 8 Gy/4 fr),NF-kB reporter ([1]; irradiation: none),ISRE reporter ([2]; irradiation: 8 Gy/4 fr),ISRE reporter ([2]; irradiation: none)
CC1=C(C(=O)OCCN(Cc2ccccc2)c2ccccc2)C(c2cccc([N+](=O)[O-])c2)C(P2(=O)OCC(C)(C)CO2)=C(C)N1 (stereo not drawn) [Efonidipine],0.685,0.896,0.776,1.14
CCOCCn1c(N2CCCN(C)CC2)nc2ccccc21 [Emedastine],0.929,1.09,0.728,0.561
"C=C(C)C1CC=C(C)C(=O)C1 (single isomer, unassigned; (+)) [(+)-(S)-Carvone]",0.774,0.619,0.696,0.459
OCCN1CC(O)C(O)C(O)C1CO (stereo not drawn) [Miglitol],0.591,0.807,0.578,0.953
Cl.OC(CCN1CCCCC1)(c1ccccc1)C1CCCCC1 (stereo not drawn) [Trihexyphenidyl hydrochloride],0.795,1.5,0.83,1.17
COc1ccc(CCC(=O)c2c(O)cc(OC3OC(CO)C(O)C(O)C3OC3OC(C)C(O)C(O)C3O)cc2O)cc1O (stereo not drawn) [Neohesperidin Dihydrochalcone (Nhdc)],0.666,0.583,0.654,0.483
CC(C)(N)CO.Cn1c(=O)c2[nH]c(Br)nc2n(C)c1=O [Pamabrom],0.623,0.693,0.717,0.709
O=C1c2c(O)cccc2C(C2OC(CO)C(O)C(O)C2O)c2cc(CO)cc(O)c21 (stereo not drawn) [Aloin],1.18,0.811,1.07,0.752
CN(C)CC(c1ccc(O)cc1)C1(O)CCCCC1 (stereo not drawn) [Desvenlafaxine],0.879,1.54,0.832,0.821
Nc1ccc(C(=O)O)cc1 [4-Aminobenzoic acid],1.03,1.25,0.638,0.6
Cc1nc(C)c(Cl)c(O)c1Cl [Clopidol],0.772,0.816,0.825,0.855
CCN(CC)CCNC(=O)c1cc(S(C)(=O)=O)ccc1OC.Cl [Tiapride Hydrochloride],0.677,0.807,0.631,0.526
Cc1c(C)c2c(c(C)c1O)CCC(C)(CCCC(C)CCCC(C)CCCC(C)C)O2 (stereo not drawn) [Vitamin E],1.33,0.908,1.08,0.584
CNC(=O)CN(CCN(CCN(CC(=O)[O-])CC(=O)NC)CC(=O)[O-])CC(=O)[O-].O.[Gd+3] [Gadodiamide Hydrate],0.971,0.684,0.945,0.695
CC12CCC(=O)C=C1C1CC1C1C2CCC2(C)C1C1CC1C21CCC(=O)O1 (stereo not drawn) [Drospirenone],0.701,0.807,0.66,0.73
CC(C)(CO)C(O)C(=O)NCCCO (stereo not drawn) [D panthenol],0.742,0.554,0.715,0.423
CCC1OC(=O)C(C)C(OC2CC(C)(OC)C(O)C(C)O2)C(C)C(OC2OC(C)CC(N(C)C)C2O)C(C)(O)CC(C)CNC(C)C(O)C1(C)O (stereo not drawn) [Azathramycin],0.712,0.92,0.725,0.78
CC(C)OC(=O)C(C)(C)Oc1ccc(C(=O)c2ccc(Cl)cc2)cc1 [Fenofibrate],0.931,0.992,0.97,0.878
CCC1(c2cnc[nH]2)Cc2ccccc2C1 [Atipamezole],0.792,0.98,0.507,0.468
CN(C)CCc1c[nH]c2ccc(CS(=O)(=O)N3CCCC3)cc12.O=C(O)CC(O)C(=O)O [Almotriptan Malate],0.747,0.926,0.897,0.826
Cc1ccccc1N1C(=O)c2cc(S(N)(=O)=O)c(Cl)cc2NC1C (stereo not drawn) [Metolazone],0.864,0.886,0.86,0.718
NC(CCC(=O)[O][Na])C(=O)O [L-Glutamic acid monosodium salt],0.859,0.79,0.878,0.703
CC(C)NCC(O)c1cc(O)cc(O)c1.CC(C)NCC(O)c1cc(O)cc(O)c1.O=S(=O)(O)O (stereo not drawn) [Metaproterenol Sulfate],0.999,0.948,0.975,0.713
OCCOCCN1CCN(C2=Nc3ccccc3Sc3ccccc32)CC1 [Quetiapine],1.01,1.48,1.18,1.43
CNCC(O)c1ccc(O)c(O)c1 [L-Adrenaline],1.03,1.17,0.987,0.896
CC(O)C1C(=O)N2C(C(=O)O)=C(SC3CNC(CNS(N)(=O)=O)C3)C(C)C12.O (stereo not drawn) [Doripenem Hydrate],0.77,0.905,0.789,0.704
